Columns and labels:
[1] = molecular target: T1, recombinant VWF-A2 domain polypeptide (amino acids G1481-R1668) (human, UniProt P04275 1481-1668); test: ELISA, increasing A1 on immobilized A2 polypeptide, CR-1 detection; half-maximal binding
T1 construct: Expressed in E. coli as a fusion protein with a His tag at the N terminus; monomeric on SDS-PAGE; also called A2 protein; VWF-A2 protein; not shown: N-terminal His tag from the vector

[2] = molecular target: T2, platelet glycoprotein Ibα on immobilized fixed platelets (UniProt P07359 17-652, limits assumed); test: increasing A1 on immobilized fixed platelets, anti-His detection; half-maximal binding
T2 construct: whole, on cells; On platelets as part of the GPIb/IX complex; blood came from human donors; also called GPIbα; platelet GPIbα

EC50 [1]: ~50 nM | EC50 [2]: ~40 nM
B1: recombinant VWF-A1 domain polypeptide ([…]) (other)
chain: not shown
notes: range […]; Expressed in E. coli with an N-terminal His tag; also called A1 polypeptide; A1 protein; not shown: N-terminal His tag from the vector

Reference: US20090118161A1 (BAYLOR COLLEGE OF MEDICINE, published 2009)
